The campaign covered roughly 52,000 compounds. About 1,700 (3.3%) were called active. No stated cut-off is given here; in the data, active means survival mostly below about 52% (no sharp cut-off); inactive means mostly above about 56%. The list shows a part of the results.
test system: Wild type; test: growth inhibition of S. aureus wild type versus tarO mutant, primary screen, teichoic acid synthesis inhibitors, RN4220, OD600 (AID 463173); conditions: S. aureus RN4220 wild type/DeltatarO growth, OD600, 18 h, hits give low values, screened at 18.75 µg/mL (by protocol)

SMILES	survival
O=C(Nc1ccc(N2CCCCC2)cc1)c1cccnc1	inactive: 107%
Cc1ccc(-c2nc3ccccc3o2)cc1NC(=O)c1cccc2c(Cl)cccc12	inactive: 62%
Cc1ccc(/C=[N+](\[O-])c2ccc(N(C)C)cc2)c2nsnc12	inactive: 89%
Cc1ccc(NC(=O)CSc2nnc3[nH]c(=O)cc(C)n23)cc1Cl	inactive: 84%
Cc1sc2c(c1C)c(=O)n(-c1ccccc1)c(=O)n2CC(=O)c1ccc(Cl)cc1	inactive: 88%
COc1cccc(CNC(=O)CCc2nnc3n(CC(C)C)c(=O)c4ccccc4n23)c1	inactive: 88%
CC(C)CC(=O)N1CC(=O)Nc2ccc(F)cc2C1c1ccccc1 (configuration not stated)	inactive: 135%
CCC(Sc1nc2c(sc3ccccc32)c(=O)n1CCCC(=O)NC1CCCC1)C(=O)Nc1cccc(OC)c1 (configuration not stated)	inactive: 141%
Cc1nc2cc(-c3ccc(Br)cc3)[nH]n2c(=O)c1Cl	inactive: 99%
CC(C)OCCCn1c(SCC(=O)Nc2ccc(F)cc2)nc2c(sc3ccccc32)c1=O	inactive: 120%
Cc1ccccc1NCc1cccn1-c1nnc(N2CCOCC2)s1	inactive: 121%
O=[N+]([O-])c1cc(-c2nc(-c3ccccc3)no2)ccc1N1CCCC1	inactive: 82%
O=C(Nc1ccc(F)cc1)C1CCN(c2nc3ccccc3n3cccc23)CC1	inactive: 86%
COc1ccc(NC(=O)c2cc3c(=O)n(C)c4ccccc4c3s2)cc1Cl	inactive: 73%
CCOC(=O)C1CCCN(C(=O)c2c(C)nn(-c3ccc(F)cc3)c2-n2cccc2)C1 (configuration not stated)	inactive: 132%
Cc1ccc(OCCSc2nc3ccc(NC(=O)c4ccc5c(c4)OCO5)cc3s2)cc1	inactive: 90%
CSc1ccc(CCNC(=O)CCn2c(=O)c3cccn3c3cccnc32)cc1	inactive: 88%
CCOc1ccc(-c2cc3c(=O)n(CC(=O)NCc4ccc(OC)cc4)ccn3n2)cc1	inactive: 72%
CCCc1ccc(OC(=O)CSc2nnc(-c3cccs3)o2)cc1	inactive: 85%
CCS(=O)(=O)N1CCc2cc(C(=O)Nc3cccc(C)c3C)ccc21	inactive: 86%
CC(=O)c1cccc(NCc2ccccc2-c2nnc(-c3ccccc3)o2)c1	inactive: 91%
Cc1cccc(NC(=O)CSc2nnc(N)s2)c1	inactive: 144%
CCOc1ccc(S(=O)(=O)N2CCC(N3CCN(Cc4ccc(F)cc4)C(=O)C3=O)CC2)cc1	inactive: 71%

SMILES	survival
O=C(NC1(C(F)(F)F)NC(=O)N(CCc2ccccc2)C1=O)c1ccccc1Cl (configuration not stated)	inactive: 73%
C/C(=N/O)c1[nH]c(C)c(/C(C)=N\O)c1C	inactive: 105%
C=CCNCc1cc2cc(OCC)ccc2[nH]c1=O	inactive: 104%
CCC(C)NS(=O)(=O)c1ccc(-n2cnnn2)cc1 (configuration not stated)	inactive: 100%
O=C(CCn1cccn1)NCc1ccc(Cl)cc1	inactive: 45%
CCOC(=O)C(CC)Sc1ncnc2sc3c(c12)CCCC3 (configuration not stated)	active: -3%
Cc1nc(-n2nc(C)c(Cc3ccccc3Cl)c2C)sc1C(=O)N1CCC(C)CC1	inactive: 79%
Cc1cccc(-n2ncc(C(=O)N3CCc4ccccc4C3)c2C2CCN(C(=O)OC(C)(C)C)CC2)c1	inactive: 135%
COc1ccc(C(CN)c2c[nH]c3ccccc23)cc1 (configuration not stated)	inactive: 114%
Cc1oc2ccc(O)c(CN3CCCCCC3)c2c1C(=O)Nc1cccc(Cl)c1C	inactive: 94%
CCSc1ncc(Cl)c(C(=O)N(Cc2ccccc2Cl)C2CCS(=O)(=O)C2)n1 (configuration not stated)	inactive: 94%
O=C(C1CCN(S(=O)(=O)c2cccs2)CC1)N1CCN(c2cccc(Cl)c2)CC1	inactive: 92%
CCN(CC)CCCNC(=O)c1ccc2c(c1)N(Cc1c(F)cccc1Cl)C(=O)c1ccccc1S2	inactive: 139%
Cc1nn2c(=O)cc(COC(=O)c3cccc(NC(=O)COc4ccc(C)c(C)c4)c3)nc2s1	inactive: 97%
Cc1c(-c2nsc(NC(=O)c3cccs3)n2)nnn1-c1ccc(Cl)cc1	inactive: 72%
N#Cc1c[nH]n2c(NC3CCCCC3)c(-c3ccccc3F)nc12	inactive: 80%
COCCSc1nnc(NC(=O)C2CCCO2)s1 (configuration not stated)	inactive: 116%
COC(=O)c1nnn(CC(=O)Nc2cc(F)ccc2F)c1C(=O)OC	inactive: 130%
CSc1ncc2c(n1)-c1ccccc1N(Cc1ccc(F)cc1)S2(=O)=O	inactive: 131%
O=C(NCCc1ccc(Cl)cc1)C(=O)NCC(c1ccco1)S(=O)(=O)c1cccs1 (configuration not stated)	active: -3%
COc1ccc(OC)c(CNS(=O)(=O)c2ccc3[nH]c4c(c3c2)CCCCC4)c1	inactive: 71%
CCC(=O)N1CCc2cc(S(=O)(=O)NC(CC(C)C)C(=O)NCCc3cccc(C)c3)ccc21 (configuration not stated)	inactive: 82%
CCOc1nc(NC)nc(N(C#N)CN2C(=O)c3ccccc3C2=O)n1	inactive: 107%

SMILES	survival
S=c1sc2c(s1)SC1C(CC3C4C=CC(C4)C31)S2 (configuration not stated)	inactive: 100%
COc1cccc(NC(=O)CSCc2cc(=O)c3ccc(C)c(C)c3[nH]2)c1	inactive: 64%
O=c1ccc2cc(S(=O)(=O)NCc3ccc(Br)cc3)ccc2[nH]1	inactive: 99%
Cc1ccc(NC(=O)CSc2nccn2Cc2ccco2)cc1Cl	inactive: 82%
O=C(NCC1CCCCC1)C1CCCN(c2ncccn2)C1 (configuration not stated)	inactive: 108%
O=S(=O)(NC1CCc2ccccc21)c1ccc(S(=O)(=O)N2CCCC2)cc1 (configuration not stated)	inactive: 116%
COc1ccc(N(CCC#N)S(=O)(=O)c2cccc3nsnc23)cc1	inactive: 111%
Cc1cc(NC(=O)COCc2cc(-c3ccc(F)cc3)on2)ccc1Br	inactive: 82%
COc1ccc(-c2onc(C)c2C)cc1S(=O)(=O)NCC(C)c1ccccc1 (configuration not stated)	inactive: 55%
CCNc1ccc(-c2nc(-c3ccccn3)no2)cc1[N+](=O)[O-]	inactive: 93%
O=C(CCCCn1c(=O)c2ccccc2n(Cc2ccccc2Cl)c1=O)NCc1ccc2c(c1)OCO2	inactive: 91%
CCCn1c2ccccc2c2cnn(CC(=O)N3CCN(c4ccccc4F)CC3)c(=O)c21	active: -6%
CCOc1ccc(CCNS(=O)(=O)c2c(C)nc3scc(C)n3c2=O)cc1OCC	inactive: 76%
Cc1ccc(C)c(NC(=O)N2CCC(CN3CCOCC3)CC2)c1	inactive: 135%
COc1cccc(N2CCN(C(=O)CCCn3c(=O)[nH]c4ccc(Br)cc4c3=O)CC2)c1	inactive: 53%
Cc1ccc(Nc2c(-c3ccc(Cl)cc3)nc3sccn23)c(C)c1	inactive: 63%
CCOc1ccc(CNC(=O)c2ccc3nc(CC)c(CC)nc3c2)cc1	inactive: 128%
CC(C)Oc1cccc(C(=O)Nc2ccc3oc(-c4cccc(Cl)c4)nc3c2)c1	inactive: 56%
Cc1cc(C)n(-c2nc3ccccc3nc2Nc2ccc(Cl)cc2Cl)n1	inactive: 86%
CCn1c(=O)c2cc(C(=O)NCCCOC)sc2c2ccccc21	inactive: 120%
CC(=O)N1CCCc2cc(S(=O)(=O)NCc3cccc(C)c3)ccc21	inactive: 70%
COc1ccc(CNC(=O)CCC2N=C3c4ccccc4N=C(SCc4cccc(F)c4)N3C2=O)cc1 (configuration not stated)	inactive: 121%
CCCN(CCC)C(=O)Cn1nnc2sc(-c3ccccc3)cc2c1=O	inactive: 87%

SMILES	survival
CCc1ccc(N2CC34C=CC(O3)C(C(=O)O)C4C2=O)cc1 (configuration not stated)	inactive: 103%
CCC(c1nnnn1CCOC)N1CCN(c2cccc(C(F)(F)F)c2)CC1 (configuration not stated)	inactive: 102%
O=c1c2cnn(-c3ccc(F)cc3)c2ncn1Cc1cccc(Cl)c1	inactive: 82%
Cc1nn2c(=O)cc(COC(=O)c3cccc(NC(=O)COc4ccccc4Cl)c3)nc2s1	inactive: 94%
Cc1ccc(C(=O)c2cn(Cc3cccc(C)c3)c3nc(C)ccc3c2=O)cc1	inactive: 54%
O=C(CNS(=O)(=O)c1ccccc1)N1CCCC1	inactive: 102%
CC(C)Oc1ccc(CNS(=O)(=O)c2ccc3c(c2)C(C)(C)C(=O)N3C)cc1	inactive: 82%
Cc1ccc(NC(=O)CSc2ncc(S(=O)(=O)c3ccc(C(C)C)cc3)c(=O)[nH]2)cc1C	inactive: 120%
CCOc1ccccc1CN(CCc1ccc2c(c1)OCO2)Cc1ccccn1	inactive: 104%
Cc1ccc(CNC(=O)c2nc(SCc3ccc(F)cc3)ncc2Cl)cc1	inactive: 91%
COc1ccc(NC(=O)Cn2c(=O)n(-c3ccccc3)c(=O)c3c4c(sc32)CCCC4)c(OC)c1	inactive: 87%
CCOC(=O)/C(C#N)=C\C1=C(N2CCCC2)CC(C)(C)OC1	inactive: 97%
Cc1cc(C)n2c(Nc3ccc4c(c3)OCCO4)c(-c3ccc(Cl)cc3)nc2n1	inactive: 143%
COc1ccc(S(=O)(=O)n2nc(C)c(S(=O)(=O)N3CCCCCC3)c2C)cc1	inactive: 60%
Cc1ccccc1NC(=O)NCCCN1CCN(c2ccccc2F)CC1	inactive: 134%
COC(=O)c1cc(S(=O)(=O)N2CCN(c3ccc(OC)cc3)CC2)c[nH]1	inactive: 85%
Cc1cc(N2CCCCC2)nc2ccc(NC(=O)/C=C/c3ccc(OC(C)C)cc3)cc12	inactive: 74%
CCCCOc1ccc(C2=NC(c3cccs3)=Nc3ccc(CC)cc3N2)cc1	inactive: 81%
CC(C)CC(=O)Nc1nc2nc(-c3ccccc3)cc(=O)n2[nH]1	inactive: 89%
COC(=O)c1c(Oc2ccc(OC)cc2)nnc(-c2ccccc2)c1-c1ccccc1	inactive: 118%
CCCN1CCN(C(=O)Cn2c(-c3cccs3)cc3ccccc32)CC1	inactive: 74%
Cc1ccc(NC(=O)c2cnc(N3CCCCC3)c3ccccc23)c(C)c1	inactive: 73%
COCCCNC(=O)C1CCN(C(=O)c2cnn(-c3ccccc3)c2-n2cccc2)CC1	inactive: 84%
